In the supplement of paper PMC4604168 (melanoma cell lines):
The list shows a part of the results. Repeats are few or missing, and single values can be far off.

Columns and labels:
Assay in all cases: cell count relative to DMSO control; melanoma cells; higher = more viable cells
Details in all cases: library dose: standard library concentration; 72 h
[1] = system: G361
[2] = system: IPC-298
[3] = system: IST-MEL1
[4] = system: LB2518-MEL
[5] = system: LOXIMVI
[6] = system: MEL-HO
[7] = system: MZ2-MEL
[8] = system: MeWo
[9] = system: RPMI7951
[10] = system: RVH-421
[11] = system: SkMel28
[12] = system: SkMel2
[13] = system: SkMel30
[14] = system: SkMel5
[15] = system: UACC257
[16] = system: UACC62
[17] = system: WM115
[18] = system: WM1716
[19] = system: WM1745
[20] = system: WM3526
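Also: cells treated in 1,536-well plates, then fixed and DAPI-stained, with nuclei counted from automated high-throughput microscope images.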

Compound	cell count [1] [%]	cell count [2] [%]	cell count [3] [%]	cell count [4] [%]	cell count [5] [%]	cell count [6] [%]	cell count [7] [%]	cell count [8] [%]	cell count [9] [%]	cell count [10] [%]	cell count [11] [%]	cell count [12] [%]	cell count [13] [%]	cell count [14] [%]	cell count [15] [%]	cell count [16] [%]	cell count [17] [%]	cell count [18] [%]	cell count [19] [%]	cell count [20] [%]
Cn1nnc2c(C(N)=O)ncn2c1=O [temozolomide] + CN(C)S(=O)(=O)c1ccc2c(c1)/C(=C/c1cc3c([nH]1)CCCC3)C(=O)N2 [SU6656] (first compound 10 µM, partner dose 2 µM)	62.8	75.3	71.6	73.6	97.6	81.2	88.2	85.2	62	90.4	37.3	133	62.5	70.4	76.6	63.1	33.4	50.4	63.2	76.1
O=C(Nc1ccccc1)c1cc([N+](=O)[O-])ccc1Cl + Oc1nc(-c2ccc(C(F)(F)F)cc2)nc2c1CSCC2 [XAV939] (first compound 10 µM, partner dose 10 µM)	73.5	89.1	101	71.9	87.4	78	73.8	90.3	61.5	82.4	67.7	87.8	99.7	97.4	78.3	61.2	84.3	81.3	66	97.6
Cn1nnc2c(C(N)=O)ncn2c1=O [temozolomide] + CO[C@@H]1[C@H](N(C)C(=O)c2ccccc2)C[C@H]2O[C@]1(C)n1c3ccccc3c3c4c(c5c6ccccc6n2c5c31)C(=O)NC4 [Midostaurin] (first compound 10 µM, partner dose 0.4 µM)	44.3	47.9	43.3	52.9	49.3	86.3	47.2	68.6	31.2	58.2	39.2	39.6	47.5	47.1	62.2	44.2	44.5	40.1	32	74.6
O=C(O)[C@@H]1[O][Sb](=[O])([O][Sb]2(=[O])[O][C@H]([C@H](O)CO)[C@H](O)[C@H](C(=O)O)[O]2)[O][C@H]([C@H](O)CO)[C@@H]1O (stereo not given in full) [stibogluconate] + Nc1ccn([C@@H]2O[C@H](CO)[C@@H](O)C2(F)F)c(=O)n1 [gemcitabine] (first compound 10 µM, partner dose 0.002 µM)	27.6	40.4	36.2	55.7	58.3	53.3	96.7	39.7	58	42.1	96.2	88.3	109	82.8	115	72.2	51.2	42.3	39.8	88.2
O=C(O)c1ccc2c(c1)nc(Nc1cccc(Cl)c1)c1ccncc12 + COc1cc(Nc2ncc(F)c(Nc3ccc4c(n3)NC(=O)C(C)(C)O4)n2)cc(OC)c1OC [Tamatinib] (first compound 2 µM, partner dose 2 µM)	60.6	73.3	58.4	77.4	13.9	49	65	66.7	16.4	82.3	68	74.4	74.6	37.4	71.4	59.9	93.9	70.6	31	69.7
O=C(O)c1ccc2c(c1)nc(Nc1cccc(Cl)c1)c1ccncc12 + O=C(O)c1ccc(-c2c[nH]c3ncc(-c4ccccc4)cc23)cc1C1CCCC1 [GSK650394] (first compound 2 µM, partner dose 0.8 µM)	50.7	80.7	63.6	106	59.5	60.1	74.6	97.7	63.9	63	67.1	69.6	91.1	72.5	83.9	105	98.3	96.1	55.6	65.8
O=C(O)[C@@H]1[O][Sb](=[O])([O][Sb]2(=[O])[O][C@H]([C@H](O)CO)[C@H](O)[C@H](C(=O)O)[O]2)[O][C@H]([C@H](O)CO)[C@@H]1O (stereo not given in full) [stibogluconate] + Cn1c(Nc2ccc(C(F)(F)F)cc2)nc2cc(Oc3ccnc(-c4ncc(C(F)(F)F)[nH]4)c3)ccc21 [CHIR265] (first compound 10 µM, partner dose 0.4 µM)	24.9	50.6	94	35	91.6	78.1	79.4	75.2	64	54	23.9	65.3	68.4	38.5	86.7	43.3	20.5	68.7	62.3	43.7
Cn1nnc2c(C(N)=O)ncn2c1=O [temozolomide] + N#Cc1c(O)c2c(-c3ccc(-c4ccccc4O)cc3)csc2[nH]c1=O [A769662] (first compound 10 µM, partner dose 10 µM)	101	77.5	83.2	95.2	105	94.6	77.5	101	107	104	30.3	116	65.7	101	112	56.4	104	60.2	95.7	107
O=C(Nc1ccccc1)c1cc([N+](=O)[O-])ccc1Cl + CCCCCCCCCCCC1=C(O)C(=O)C=C(O)C1=O [Embelin] (first compound 10 µM, partner dose 6 µM)	80.4	59.4	70.8	70.2	76	62.4	62	97	91	61.5	57.1	82.2	97.9	77.8	93.3	74.2	75.1	100	63.3	99.8
O=C(Nc1cc(C(F)(F)F)cc(C(F)(F)F)c1)c1cc(Cl)ccc1O + CCN(CC)CCNC(=O)c1c(C)[nH]c(/C=C2\C(=O)Nc3ccc(F)cc32)c1C [sunitinib] (first compound 0.08 µM, partner dose 2 µM)	79.9	78.9	92.2	66.7	140	80.7	82.2	67.4	66.6	82.6	70.2	68.6	65	55.7	82.3	67.8	51.7	101	47.7	69.9
Cn1nnc2c(C(N)=O)ncn2c1=O [temozolomide] + Cc1ccc(NC(=O)c2cccc(N(C)C)c2)cc1NC(=O)c1ccc(O)cc1 [ZM336372] (first compound 10 µM, partner dose 10 µM)	95.7	104	75.5	82.2	90.6	95.4	88.7	97.5	70.7	128	32.3	92.9	52.9	88.7	95.4	61.5	78.7	64.4	72.5	97.3
Cc1cc(N2CCOCC2)cc2[nH]c(-c3c(NC[C@@H](O)c4cccc(Cl)c4)cc[nH]c3=O)nc12 + Cn1cncc1[C@@](N)(c1ccc(Cl)cc1)c1ccc2c(c1)c(-c1cccc(Cl)c1)cc(=O)n2C [tipifarnib] (first compound 1 µM, partner dose 0.05 µM)	63.6	91.4	78.7	62.8	54.4	84.5	97.3	75.7	54.1	83.1	52	66.5	89.4	71	89.2	73.9	61.4	59.8	54	59.5
Cc1cc(N2CCOCC2)cc2[nH]c(-c3c(NC[C@@H](O)c4cccc(Cl)c4)cc[nH]c3=O)nc12 + CCCCCCCCCCCC1=C(O)C(=O)C=C(O)C1=O [Embelin] (first compound 1 µM, partner dose 6 µM)	59.5	57.6	63.5	69.2	95	73.8	74.5	81.2	85.1	79.4	86.5	73.5	77.2	88	79.9	117	91.6	113	36.2	87.6
O=C(O)[C@@H]1[O][Sb](=[O])([O][Sb]2(=[O])[O][C@H]([C@H](O)CO)[C@H](O)[C@H](C(=O)O)[O]2)[O][C@H]([C@H](O)CO)[C@@H]1O (stereo not given in full) [stibogluconate] + Cc1cc(N2CCOCC2)cc2[nH]c(-c3c(NC[C@@H](O)c4cccc(Cl)c4)cc[nH]c3=O)nc12 [BMS536924] (first compound 10 µM, partner dose 1 µM)	72.4	107	197	105	62.7	93.7	115	71.6	94.1	35	67.8	94.7	92.4	70.2	105	97.1	84.2	130	56.8	80.8
O=C(O)[C@@H]1[O][Sb](=[O])([O][Sb]2(=[O])[O][C@H]([C@H](O)CO)[C@H](O)[C@H](C(=O)O)[O]2)[O][C@H]([C@H](O)CO)[C@@H]1O (stereo not given in full) [stibogluconate] + O=C(O)c1ccc2c(c1)nc(Nc1cccc(Cl)c1)c1ccncc12 [CX4945] (first compound 10 µM, partner dose 2 µM)	65.1	59.7	85.6	91.3	43.4	60.9	60.7	94.1	62.5	100	56.4	61.1	60.9	88	89.9	73.4	76.1	106	57.9	70.3
O=C(Nc1cc(C(F)(F)F)cc(C(F)(F)F)c1)c1cc(Cl)ccc1O + CC(C)C[C@H](NC(=O)[C@H](Cc1ccccc1)NC(=O)c1cnccn1)B(O)O [Bortezomib] (first compound 0.08 µM, partner dose 0.005 µM)	1.43	7.65	16.5	3.74	40.9	28.3	6.82	15	4.67	42.1	27.9	42.2	25.7	37.8	75	64.1	20.3	17	22.5	26.1
O=C(Nc1cc(C(F)(F)F)cc(C(F)(F)F)c1)c1cc(Cl)ccc1O + CN(c1ncccc1CNc1nc(Nc2ccc3c(c2)CC(=O)N3)ncc1C(F)(F)F)S(C)(=O)=O [PF562271] (first compound 0.08 µM, partner dose 0.4 µM)	76.1	88.3	88.9	75.5	107	79	89.6	80	67.7	68.7	92.7	79.8	91.4	78.9	80.8	64.7	100	82.7	70.3	96.8
